This is an account of results in the supplement of paper PMC10670038.

Where a name gives a salt, the structure may show the parent alone. ± gives the standard deviation of the averaged measurements. In all, about 2,000 compounds were measured (“relative cell viability vs DMSO, compound alone”: median about 1.1, lowest 2% from about 0.29 on). The list shows a part of the results.

For the test, the system named is TE10. Nature of the test: relative cell viability vs DMSO, compound alone (fraction); TE10 is an esophageal squamous carcinoma line; higher = less cytotoxic. The conditions noted are these: 2 µM; 48 h. As for the experimental part: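 TE10 ESCC cells (1,000/well, 384-well plates) were treated with Selleck bioactive library compounds at 2 uM alone for 48 h. Viability was read by CellTiter-Glo and expressed relative to DMSO wells. Two technical replicates (A, B).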
`CCCN(CCC)CCc1cccc2c1CC(=O)N2` [Ropinirole HCl] showed a relative cell viability of 1.006 ± 0.008.

Molecule `COc1cccc2c1C(=O)c1c(O)c3c(c(O)c1C2=O)C[C@@](O)(C(=O)CO)C[C@@H]3O[C@H]1C[C@H](N)[C@@H](O)[C@H](C)O1` [Epirubicin HCl] came in with a relative cell viability of 0.323 ± 0.0051.

Turning to `Nc1ccc(-c2ccc3ncc4ccc(=O)n(-c5cccc(C(F)(F)F)c5)c4c3c2)cn1` [Torin 2], the relative cell viability stood at 0.378 ± 0.014.

In turn, `CSc1nc2cc(Cl)c(Oc3cccc(Cl)c3Cl)cc2[nH]1` [Triclabendazole] had a relative cell viability of 1.15 ± 0.087.

The molecule `Cc1cnc(-c2ccccc2C(C)C)nc1NCc1ccc(-n2ccnn2)cc1` returned a relative cell viability of 1.14 ± 0.037.

As to `CCCCCCCCCCCCCCCCn1cc[n+](Cc2ccccc2)c1C`, the relative cell viability worked out at 0.618 ± 0.011.

`Cn1cnc2c(F)c(Nc3ccc(Br)cc3F)c(C(=O)NOCCO)cc21` gave a relative cell viability of 0.842 ± 0.01.

In turn, `C#Cc1cccc(Nc2ncnc3cc(OCCOC)c(OCCO)cc23)c1` gave a relative cell viability of 1.12 ± 0.028.

For `COc1cc2nc(N3CCCC3)nc(NCCCCCN3CCCC3)c2cc1OC`, the relative cell viability worked out at 1.036 ± 0.0072.

`NC(=O)c1cnccn1` [Pyrazinamide] returned a relative cell viability of 1.12 ± 0.02.

As for `Nc1nc(N)c(N=O)c(OCC2CCCCC2)n1`, the relative cell viability turned out to be 1.03 ± 0.023.

Molecule `Oc1ccc(-c2nc(-c3ccc(F)cc3)c(-c3ccncc3)[nH]2)cc1` showed a relative cell viability of 1.31 ± 0.042.

Molecule `Cc1ccc(C(=O)Nc2ccc(CN3CCN(C)CC3)c(C(F)(F)F)c2)cc1C#Cc1cnc2[nH]ncc2c1` returned a relative cell viability of 0.6 ± 0.011.

Turning to `Cc1ccc(-n2nc(C(C)(C)C)cc2NC(=O)NCc2cc(F)ccc2Oc2ccc3c(cnn3CCO)c2)cc1` [Pexmetinib (ARRY-614)], the relative cell viability was found to be 1.095 ± 0.0039.

On to `C=C[C@H]1CN2CC[C@H]1C[C@H]2[C@H](O)c1ccnc2ccc(OC)cc12` [Quinine HCl Dihydrate], for which the relative cell viability came to 0.965 ± 0.032.

Turning to `CC1(C)S[C@@H]2[C@H](NC(=O)[C@H](N)c3ccccc3)C(=O)N2[C@H]1C(=O)O` [Ampicillin Trihydrate], the relative cell viability worked out at 1.047 ± 0.0036.

On to `CC1(C)S[C@@H]2[C@H](NC(=O)[C@H](N)c3ccccc3)C(=O)N2[C@H]1C(=O)O` [Ampicillin sodium], for which the relative cell viability is 1.11 ± 0.012.

`Cc1ccccc1C(C(=O)NC1CCCCC1)N(C(=O)Cn1ccnc1C)c1cccc(F)c1` (centres undefined) showed a relative cell viability of 0.989 ± 0.22.

`O=C(O)c1cc(=O)[nH]c(=O)[nH]1` [Orotic acid (6-Carboxyuracil)] came in with a relative cell viability of 1.14 ± 0.077.

As to `C[C@]12CCC(=O)C=C1[C@@H]1C[C@@H]1[C@H]1[C@@H]3[C@@H]4C[C@@H]4[C@@]4(CCC(=O)O4)[C@@]3(C)CC[C@@H]12` [Drospirenone], the relative cell viability was determined as 1.05 ± 0.092.

Molecule `COc1ccc2cc([C@H](C)C(=O)O)ccc2c1` [Naproxen] showed a relative cell viability of 1.16 ± 0.057.

Molecule `Cc1ncc([N+](=O)[O-])n1CC(C)O` (centres undefined) [Secnidazole] registered a relative cell viability of 0.782 ± 0.072.

In the case of `OCCn1cc(-c2cnc3nnn(Cc4ccc5ncccc5c4)c3n2)cn1`, the relative cell viability was 1.18 ± 0.019.

Molecule `CC/C(=C(\c1ccc(O)cc1)c1ccc(OCCNC)cc1)c1ccccc1` [Endoxifen HCl] displayed a relative cell viability of 1.133 ± 0.011.

`Cc1ccc(S(=O)(=O)Cc2nc(-c3ccc(C(=O)NCc4cccnc4)cc3)oc2C)cc1` came in with a relative cell viability of 1.1 ± 0.036.

Molecule `COc1cccc2c1C(=O)c1c(O)c3c(c(O)c1C2=O)C[C@@](O)(C(C)=O)C[C@@H]3O[C@H]1C[C@H](N)[C@H](O)[C@H](C)O1` [Daunorubicin HCl] registered a relative cell viability of 0.328 ± 0.021.

For `CNC(=O)c1cc(Oc2ccc(NC(=O)Nc3ccc(Cl)c(C(F)(F)F)c3)cc2)ccn1` [Sorafenib Tosylate], the relative cell viability came out at 1.14 ± 0.077.

Consider `CNC(=O)c1cc(Oc2ccc(NC(=O)Nc3ccc(Cl)c(C(F)(F)F)c3)cc2)ccn1` [Sorafenib], for which the relative cell viability turned out to be 1.08 ± 0.016.

Regarding `CNC(=O)c1ccccc1Nc1cc(Nc2ccc(N3CCOCC3)cc2OC)ncc1C(F)(F)F`, the relative cell viability is 1.02 ± 0.04.

Molecule `NCCCC[C@@H]1NC(=O)[C@@H](Cc2ccc(O)cc2)NC(=O)[C@H](CC(=O)O)NC(=O)CNC(=O)[C@H](CCCN=C(N)N)NC1=O` [Cyclo(RGDyK)] gave a relative cell viability of 1.04 ± 0.022.

Regarding `CN1C(CCl)Nc2cc(Cl)c(S(N)(=O)=O)cc2S1(=O)=O` (centres undefined) [Methyclothiazide], the relative cell viability stood at 1.16 ± 0.026.

On to `OCc1ccccc1O[C@@H]1O[C@H](CO)[C@@H](O)[C@H](O)[C@H]1O` [Salicin], for which the relative cell viability was determined as 1.143 ± 0.00076.

As to `C=C1CC[C@@H]2[C@](C)(CO)[C@H](O)CC[C@@]2(C)[C@@H]1C/C=C1/C(=O)OC[C@H]1O` [Andrographolide], the relative cell viability was 0.99 ± 0.041.

`CC(=O)NS(=O)(=O)c1ccc(N)cc1` [Sulfacetamide Sodium]: the relative cell viability amounted to 0.956 ± 0.037.

Molecule `Cc1cn([C@H]2C=C[C@@H](CO)O2)c(=O)[nH]c1=O` [Stavudine (d4T)] registered a relative cell viability of 1.233 ± 0.0061.

`CCN(CC)CC(=O)Nc1c(C)cccc1C` [Lidocaine] showed a relative cell viability of 1.18 ± 0.0049.

Molecule `CC(C=CC(=O)NO)=CC(C)C(=O)c1ccc(N(C)C)cc1` (centres undefined) [Trichostatin A (TSA)] returned a relative cell viability of 0.0876 ± 0.0041.

`CC(=O)OCC(=O)[C@@]12OC(C)(C)O[C@@H]1C[C@H]1[C@@H]3C[C@H](F)C4=CC(=O)C=C[C@]4(C)[C@@]3(F)[C@@H](O)C[C@@]12C` [Fluocinonide] returned a relative cell viability of 0.9937 ± 0.0069.

In the case of `c1ccc2c(CC3=NCCN3)cccc2c1` [Naphazoline HCl], the relative cell viability came to 1.13 ± 0.013.

Molecule `CN(c1ccccc1CNc1nc(Nc2ccc3c(c2)CC(=O)N3)ncc1C(F)(F)F)S(C)(=O)=O` displayed a relative cell viability of 0.9039 ± 0.0075.

The molecule `Cc1cnc(-c2cc(N3CCN(C(=O)CCS(C)(=O)=O)CC3)ncc2Cl)c(C)c1` yielded a relative cell viability of 1.14 ± 0.036.

As to `CC(C)(CO)c1cc2cc(NC(=O)C3(c4ccc5c(c4)OC(F)(F)O5)CC3)c(F)cc2n1C[C@@H](O)CO`, the relative cell viability stood at 1.11 ± 0.019.

In turn, `Cc1c(CN2CCN(C(=O)[C@H](C)O)CC2)sc2c(N3CCOCC3)nc(-c3cnc(N)nc3)nc12` displayed a relative cell viability of 0.317 ± 0.021.

The molecule `CN1CCc2c(c3ccccc3n2Cc2ccc(C(=O)NO)cc2)C1` [Tubastatin A] returned a relative cell viability of 1.14 ± 0.023.

As to `CN1CCc2c(c3ccccc3n2Cc2ccc(C(=O)NO)cc2)C1` [Tubastatin A HCl], the relative cell viability came out at 0.9558 ± 0.0063.

The molecule `CN(C)C(=O)c1ccc(S(=O)(=O)c2ccc(NC(=O)C(C)(O)C(F)(F)F)c(Cl)c2)cc1` (centres undefined) displayed a relative cell viability of 1.19 ± 0.024.

In turn, `C=CC(C)(C)c1cc(C=CC(=O)c2ccc(O)cc2)c(OC)cc1O` [Licochalcone A] came in with a relative cell viability of 1.08 ± 0.023.

With `CC[C@@H]1C(=O)OC[C@@H]1Cc1cncn1C` [Pilocarpine HCl], the relative cell viability was found to be 1.13 ± 0.025.

Consider `CNc1cc(-c2cccc(Cl)c2Cl)nc(N)n1`, for which the relative cell viability stood at 0.935 ± 0.027.

For `C[C@@H](O[C@H]1OCCN(Cc2nn(P(=O)(O)O)c(=O)[nH]2)[C@H]1c1ccc(F)cc1)c1cc(C(F)(F)F)cc(C(F)(F)F)c1` [Fosaprepitant dimeglumine salt], the relative cell viability is 1.06 ± 0.045.

`CCC(C)(Oc1ccc(C2(c3ccc(OC(C)(CC)C(=O)O)cc3)CCCCC2)cc1)C(=O)O` (centres undefined) [Clinofibrate] displayed a relative cell viability of 1.105 ± 0.01.

Molecule `COc1cc2nccc(Oc3ccc(NC(=O)NC4CC4)c(Cl)c3)c2cc1C(N)=O` [Lenvatinib (E7080)] displayed a relative cell viability of 1.13 ± 0.027.

Molecule `Cc1ncc(-c2ccnc(Nc3ccc(S(C)(=O)=O)cc3)n2)n1C(C)C` came in with a relative cell viability of 0.689 ± 0.052.

`CS(=O)(=O)OCCCCOS(C)(=O)=O` [Busulfan]: the relative cell viability was determined as 0.932 ± 0.0095.

In the case of `N#Cc1ccc(-c2csc(NN=C3CCCC3)n2)cc1` [Remodelin], the relative cell viability is 1.121 ± 0.0093.

Molecule `O=C(/C=C/c1ccc(O)cc1)c1ccc(O)cc1O` [Isoliquiritigenin] registered a relative cell viability of 0.965 ± 0.035.

Take `N#CCNC(=O)c1ccc(-c2ccnc(Nc3ccc(N4CCOCC4)cc3)n2)cc1`: the relative cell viability came to 1.14 ± 0.034.

`OCc1c[nH]c2ccccc12` [Indole-3-carbinol]: the relative cell viability amounted to 1.14 ± 0.048.

The molecule `COc1ccc(C2CC(=O)c3c(O)cc(OC4OC(COC5OC(C)C(O)C(O)C5O)C(O)C(O)C4O)cc3O2)cc1OC` (centres undefined) [Methyl-Hesperidin] displayed a relative cell viability of 1.06 ± 0.057.

`CN(C)C(=O)[C@H](O)[C@H](Cc1ccccc1)NC(=O)c1cc2cc(Cl)ccc2[nH]1`: the relative cell viability was 1 ± 0.19.

Take `O=C(Oc1cc(S(=O)(=O)c2ccccc2)ccc1[N+](=O)[O-])c1ccc(Cl)cc1`: the relative cell viability stood at 1.095 ± 0.0016.

`N[C@@H](Cc1cc(I)c(Oc2ccc(O)c(I)c2)c(I)c1)C(=O)O` [Liothyronine Sodium] yielded a relative cell viability of 0.869 ± 0.12.

`Cc1ccc(=O)n(-c2ccccc2)c1` [Pirfenidone] gave a relative cell viability of 1.18 ± 0.027.

`C[C@H](CCC(=O)O)[C@H]1CC[C@H]2[C@@H]3[C@@H](O)C[C@@H]4C[C@H](O)CC[C@]4(C)[C@H]3CC[C@]12C` [Ursodiol] registered a relative cell viability of 0.96 ± 0.08.

The molecule `O=C(CCCN1CCN(c2ccccn2)CC1)c1ccc(F)cc1` [Azaperone] had a relative cell viability of 1.1 ± 0.032.

Regarding `O=C(Nc1ccncc1)c1cc([N+](=O)[O-])ccc1Cl`, the relative cell viability turned out to be 1.2 ± 0.041.

In turn, `COCCCN1CCC(NC(=O)c2cc(Cl)c(N)c3c2OCC3)CC1` [Prucalopride Succinat] came in with a relative cell viability of 1.01 ± 0.018.

In turn, `COCCCN1CCC(NC(=O)c2cc(Cl)c(N)c3c2OCC3)CC1` [Prucalopride] came in with a relative cell viability of 1.07 ± 0.093.

The molecule `CNc1nc(Nc2cn(C(C)(C)C#N)nc2C)ncc1C(F)(F)F` returned a relative cell viability of 1.11 ± 0.026.

Consider `COC(=O)C1=C(C#N)NC(C)=C(C(=O)OC(C)C)C1c1cccc([N+](=O)[O-])c1` (centres undefined) [Nilvadipine], for which the relative cell viability stood at 1.13 ± 0.024.

With `Cc1ccc(NC(=O)c2cccc(C(C)(C)C#N)c2)cc1Nc1ccc2ncn(C)c(=O)c2c1`, the relative cell viability is 0.886 ± 0.17.

In turn, `OCCN(CCO)c1nc(N2CCCCC2)c2nc(N(CCO)CCO)nc(N3CCCCC3)c2n1` [Dipyridamole] displayed a relative cell viability of 1.1412 ± 0.0007.

Molecule `CC[C@@H](C)Nc1cc(C(=O)N[C@H]2C[C@H]3CC[C@@H](C2)N3c2ccc(C(=O)C3CC3)cn2)c(C)cc1C(N)=O` gave a relative cell viability of 0.449 ± 0.023.

Consider `C[C@]12CC[C@@H]3c4ccc(OC(=O)c5ccccc5)cc4CC[C@H]3[C@@H]1CC[C@@H]2O` [Estradiol Benzoate], for which the relative cell viability worked out at 1.052 ± 0.0075.

For `Cc1ccc(F)c(NC(=O)Nc2ccc(-c3cccc4[nH]nc(N)c34)cc2)c1` [Linifanib (ABT-869)], the relative cell viability amounted to 0.983 ± 0.068.

Molecule `CN1CCN(C(c2ccccc2)c2ccccc2)CC1` [Cyclizine 2HCl] gave a relative cell viability of 1.124 ± 0.0085.

As to `CC(C)OC(=O)C1=CN(C(=O)c2ccc(F)c(F)c2)CC(C)(C)c2c1[nH]c1ccccc21`, the relative cell viability worked out at 1.12 ± 0.032.

With `CC(C)(C)[N+]([O-])=Cc1ccc(S(=O)(=O)O)cc1S(=O)(=O)O`, the relative cell viability came out at 0.884 ± 0.17.

For `Cc1c(-c2cnccn2)ssc1=S` [Oltipraz], the relative cell viability was found to be 0.944 ± 0.13.
